Values marked as one replicate rest on one cluster of the flow cell; about a third of the high ones do not repeat.
Each sequence was assayed on ATP (assay: switch fluorescence ratio, 500 uM ATP over buffer (Cy3 cluster intensity, sum of 5 cycles each) (fold (ratio)); higher = stronger signal-on switching upon ATP binding; sequences stand for … in TCGTCGGCAGCGTCAGATGTGTATAAGAGACAGTTTTTTTTTTTTTTTTTTTTTTTTT…TC). Settings: aptamer strand: ATP DNA aptamer (quencher-CACCTGGGGGAGTATTGCGGAGGAAGG + anchor), 100 nM annealed; ATP concentration: 500 uM; one replicate.
In short: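 The quencher-labelled ATP aptamer, at 100 nM, was annealed to Cy3-labelled switching-strand clusters on a modified Illumina MiSeq flow-cell. The clusters were imaged in selection buffer, then after 15 min with 500 uM ATP at 22 °C, and this buffer/ATP cycle ran five times with NaOH stripping and re-annealing between runs. Per-cluster fluorescence ratios, summed target-cycle over summed buffer-cycle Cy3 intensity, were averaged per switch-domain sequence. Clusters outside 100-1000 RFU were excluded.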
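Note: ATP exposure 15 min at 22 °C before imaging.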

| Sequence | switch fluorescence ratio |
| --- | --- |
| AGTTTGTTCA | 0.987 |
| AGTTTTTCCT | 1.04 |
| AGTTTTTGTA | 0.985 |
| ATAAAAAAGA | 1.02 |
| ATAAAAACTT | 0.952 |
| ATAAACCCC | 1.03 |
| ATAAAGATT | 0.96 |
| ATAAAGCGCG | 1.1 |
| ATAAAGCTT | 0.989 |
| ATAAATACTG | 1.43 |
| ATAAATAGAC | 1.11 |
| ATAACCTTGC | 3.26 |
| ATAACGATCA | 1.08 |
| ATAACGCCTG | 1.02 |
| ATAACTGTTG | 0.987 |
| ATAAGACCTG | 1.05 |
| ATAAGACTTG | 0.984 |
| ATAAGCCGGT | 1.01 |
| ATAAGCGCGC | 1.03 |
| ATAAGGGCAT | 1.02 |
| ATAAGTTACA | 1.13 |
| ATAAGTTCTA | 1.04 |
| ATAATACGAG | 1.11 |
| ATAATAGTTA | 1 |
| ATAATATGCG | 1.05 |

| Sequence | switch fluorescence ratio |
| --- | --- |
| ATAATCAGTG | 0.936 |
| ATAATCCAAG | 1.01 |
| ATAATCCGAC | 1.28 |
| ATAATCGTA | 1 |
| ATAATCGTCT | 1.09 |
| ATAATGGCCC | 0.951 |
| ATAATTCCGG | 0.961 |
| ATAATTGCGC | 1.04 |
| ATAATTTGAG | 1.02 |
| ATACACCTCA | 1.11 |
| ATACACTTAA | 1.09 |
| ATACATTTCT | 1.04 |
| ATACCAATGG | 1.01 |
| ATACCACAAT | 1.08 |
| ATACCAGAAG | 0.985 |
| ATACCCTGC | 0.992 |
| ATACCGAGAA | 1.02 |
| ATACCGCGAA | 1.8 |
| ATACCGTCGT | 1.07 |
| ATACCTGCTC | 1.35 |
| ATACGACTGC | 1.05 |
| ATACGAGCCT | 1.28 |
| ATACGCCTAA | 1.05 |
| ATACGCTATG | 1.18 |
| ATACGGGGAC | 1.07 |

| Sequence | switch fluorescence ratio |
| --- | --- |
| ATACGGTATA | 1.05 |
| ATACGTGGGT | 0.996 |
| ATACGTTAGG | 1.06 |
| ATACTAACGA | 1.29 |
| ATACTAAGAT | 1.03 |
| ATACTAATTA | 0.972 |
| ATACTCAAAA | 1.01 |
| ATACTCAATA | 1.1 |
| ATACTCGACA | 1.31 |
| ATACTCTAGA | 1.06 |
| ATACTGCCAC | 1.38 |
| ATACTTACTC | 1.28 |
| ATACTTAGGG | 1.08 |
| ATACTTGATG | 0.996 |
| ATACTTGGCG | 1.01 |
| ATAGAAAGGC | 1.04 |
| ATAGAAGTAA | 1.06 |
| ATAGAGTAAT | 0.973 |
| ATAGAGTTAA | 1.01 |
| ATAGAGTTCC | 0.974 |
| ATAGATACGG | 1.05 |
| ATAGATAG | 1.01 |
| ATAGATGTGG | 1.03 |
| ATAGCAGGGC | 1.04 |
| ATAGCATTCG | 1.04 |

| Sequence | switch fluorescence ratio |
| --- | --- |
| ATAGCCAAAC | 1.25 |
| ATAGCCGAGA | 0.976 |
| ATAGCCGCAA | 5.46 |
| ATAGCCTTTA | 1 |
| ATAGCGAGGC | 1.14 |
| ATAGCGCCGG | 1.02 |
| ATAGCGTAAC | 1.1 |
| ATAGCGTTAT | 0.972 |
| ATAGCTCTGC | 1.04 |
| ATAGGAAGCA | 0.993 |
| ATAGGAAGCT | 0.987 |
| ATAGGAGAG | 1 |
| ATAGGCACTA | 1 |
| ATAGGCCGAC | 1.03 |
| ATAGGCCGCG | 1.02 |
| ATAGGGAAAT | 1.01 |
| ATAGGGAGCG | 0.971 |
| ATAGGGGGAC | 1 |
| ATAGGGTCAA | 1.03 |
| ATAGGTGGCA | 1.02 |
| ATAGGTTTCA | 0.981 |
| ATAGTAGTAA | 0.98 |
| ATAGTATCAG | 0.944 |
| ATAGTCAGAA | 1 |
| ATAGTCTCCG | 1.03 |
